This is one part of the list. These are noisy estimates, calculated here from bound and input reads.

The assay concerns the target T1, Pho4 (S. cerevisiae) (UniProt P07270).
T1 sequence: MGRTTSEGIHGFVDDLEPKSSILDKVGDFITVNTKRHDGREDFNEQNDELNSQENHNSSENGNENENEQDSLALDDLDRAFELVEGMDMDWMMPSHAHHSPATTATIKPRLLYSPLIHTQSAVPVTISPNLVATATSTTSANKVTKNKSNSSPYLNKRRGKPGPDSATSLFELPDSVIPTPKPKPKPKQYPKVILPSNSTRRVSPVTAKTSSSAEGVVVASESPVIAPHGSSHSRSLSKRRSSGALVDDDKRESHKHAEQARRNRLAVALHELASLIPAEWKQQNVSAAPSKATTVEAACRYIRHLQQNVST
In words: relative binding free energy (BET-seq); higher = weaker binding. Particulars: reference: library average.
In the case of GAACGCACGTGATGGG, the “relative binding free energy” value was found to be 0.251 kJ/mol.

As for CGTTGCACGTGGGTCA, the “relative binding free energy” value was -0.293 kJ/mol.

Turning to AGTGGCACGTGGTAAA, the “relative binding free energy” value is -0.879 kJ/mol.

As for TTGCACACGTGAGGAG, the “relative binding free energy” value was determined as 1.67 kJ/mol.

On to TTGCCCACGTGGGTTG, for which the “relative binding free energy” value was -1.09 kJ/mol.

For ATGCACACGTGGTGGG, the “relative binding free energy” value is -0.502 kJ/mol.

In the case of TTCTTCACGTGAATTT, the “relative binding free energy” value amounted to 1.46 kJ/mol.

Take TCATGCACGTGGGAGT: the “relative binding free energy” value was -0.46 kJ/mol.

With CTGGGCACGTGGGGTT, the “relative binding free energy” value is -1.05 kJ/mol.

For the sequence AGATACACGTGGGGAT, the “relative binding free energy” value is -0.795 kJ/mol.

For the sequence TTGTTCACGTGCTCGA, the “relative binding free energy” value was 0.837 kJ/mol.

For the sequence GCAGGCACGTGGGGGA, the “relative binding free energy” value was -0.669 kJ/mol.

For GTCGGCACGTGTTAAG, the “relative binding free energy” value is -0.0418 kJ/mol.

As to TCAGGCACGTGCGAGG, the “relative binding free energy” value was -0.335 kJ/mol.

Take AGGGTCACGTGAATGG: the “relative binding free energy” value was 0.711 kJ/mol.

TTGTGCACGTGATATA: the “relative binding free energy” value was determined as 0.544 kJ/mol.

On to TTGTACACGTGTGACT, for which the “relative binding free energy” value is 0.293 kJ/mol.

With TTTGTCACGTGAGAAT, the “relative binding free energy” value came to 1.42 kJ/mol.

As for CACGGCACGTGGGGGC, the “relative binding free energy” value was -1.13 kJ/mol.

Regarding GGGTTCACGTGACGTA, the “relative binding free energy” value came out at 1.76 kJ/mol.

For the sequence ATGTTCACGTGGGAGC, the “relative binding free energy” value was 0.586 kJ/mol.

Regarding AGGGGCACGTGCTGGT, the “relative binding free energy” value is -1.34 kJ/mol.

Turning to GGTAGCACGTGTTTAT, the “relative binding free energy” value was -0.126 kJ/mol.

In the case of TGGTTCACGTGTTCTA, the “relative binding free energy” value was determined as 1.21 kJ/mol.

With TGAATCACGTGGTTTA, the “relative binding free energy” value worked out at 0.711 kJ/mol.

GGTATCACGTGATTTA: the “relative binding free energy” value amounted to 1.38 kJ/mol.

As for TATTGCACGTGAGATG, the “relative binding free energy” value is 0.502 kJ/mol.

Consider GGTGTCACGTGCAGGT, for which the “relative binding free energy” value worked out at 0.586 kJ/mol.

For the sequence ATTTACACGTGGTTGC, the “relative binding free energy” value was 0.0837 kJ/mol.

With GTGGACACGTGGTCCG, the “relative binding free energy” value was -0.126 kJ/mol.

Consider GGGAACACGTGGGGGG, for which the “relative binding free energy” value is -0.377 kJ/mol.

Regarding GTGCGCACGTGGTGGA, the “relative binding free energy” value is -0.377 kJ/mol.

As for ACCGGCACGTGTTGTG, the “relative binding free energy” value was -0.167 kJ/mol.

In the case of TATTTCACGTGTCAAT, the “relative binding free energy” value stood at 1 kJ/mol.

Regarding GTTGGCACGTGGAAAT, the “relative binding free energy” value came out at 0.586 kJ/mol.

Take GTTTTCACGTGGATGG: the “relative binding free energy” value is 1.13 kJ/mol.

As to GGATGCACGTGCGTAG, the “relative binding free energy” value was -0.669 kJ/mol.

As for TGAGACACGTGGGCTG, the “relative binding free energy” value is -0.502 kJ/mol.

On to TAGGGCACGTGGCTGA, for which the “relative binding free energy” value was -1.09 kJ/mol.

In the case of TGTTTCACGTGGCGCG, the “relative binding free energy” value was found to be 1.13 kJ/mol.

As for GATAGCACGTGTGGAT, the “relative binding free energy” value amounted to 0.46 kJ/mol.

With GCTTGCACGTGTATGT, the “relative binding free energy” value stood at 0.126 kJ/mol.

For the sequence TACTTCACGTGCGTGT, the “relative binding free energy” value was determined as 1.46 kJ/mol.

Regarding TTGGTCACGTGACATA, the “relative binding free energy” value was found to be 0.586 kJ/mol.

Consider TGAACCACGTGTGAGG, for which the “relative binding free energy” value was 0.167 kJ/mol.

Take ATTGGCACGTGCGGTT: the “relative binding free energy” value is -0.335 kJ/mol.

Take GGGTACACGTGAAGGG: the “relative binding free energy” value was 1.38 kJ/mol.

For ATGTGCACGTGTTCTA, the “relative binding free energy” value is -0.586 kJ/mol.

Take CATAACACGTGGTGGA: the “relative binding free energy” value turned out to be 0 kJ/mol.

For the sequence CTGATCACGTGCGGGT, the “relative binding free energy” value was found to be 0.962 kJ/mol.

On to CGTGTCACGTGTGTCG, for which the “relative binding free energy” value worked out at 0.209 kJ/mol.

For AGGGGCACGTGCGAAT, the “relative binding free energy” value is -0.669 kJ/mol.

On to CGTGGCACGTGTGCGC, for which the “relative binding free energy” value is -0.293 kJ/mol.

For the sequence GAGTTCACGTGTGATG, the “relative binding free energy” value turned out to be 2.09 kJ/mol.

With GTTCGCACGTGTTAGT, the “relative binding free energy” value came out at 0.502 kJ/mol.

For GTTGTCACGTGATTTG, the “relative binding free energy” value stood at 1.67 kJ/mol.

As to TAACTCACGTGTTAGT, the “relative binding free energy” value came to 0.586 kJ/mol.

For TTGATCACGTGGTACA, the “relative binding free energy” value worked out at 0.586 kJ/mol.

With TCAGTCACGTGAGTGG, the “relative binding free energy” value came out at 1.34 kJ/mol.

Regarding TGATTCACGTGTTGTC, the “relative binding free energy” value came to 1.34 kJ/mol.

As to GGAGGCACGTGCTGAG, the “relative binding free energy” value was -0.669 kJ/mol.

On to ATGCGCACGTGTTGTA, for which the “relative binding free energy” value is -0.0418 kJ/mol.

As to GTGGGCACGTGCTGTG, the “relative binding free energy” value is -0.126 kJ/mol.

As to CCGGTCACGTGGGGAT, the “relative binding free energy” value was 0 kJ/mol.

For the sequence TCATTCACGTGCGGTG, the “relative binding free energy” value worked out at 1.21 kJ/mol.

For the sequence ACCGACACGTGGGTGG, the “relative binding free energy” value is 0.293 kJ/mol.

ATGAGCACGTGGACGG: the “relative binding free energy” value was -0.335 kJ/mol.

For the sequence CATGTCACGTGTGGAT, the “relative binding free energy” value is 0.628 kJ/mol.

Consider GGTCTCACGTGTGGCT, for which the “relative binding free energy” value is 1 kJ/mol.

In the case of CAATGCACGTGGTGGC, the “relative binding free energy” value was -0.293 kJ/mol.

In the case of TTGCACACGTGGCTTG, the “relative binding free energy” value stood at 0 kJ/mol.

As to AGTAACACGTGGGAAA, the “relative binding free energy” value is 0.251 kJ/mol.

Take AAGGTCACGTGATGTT: the “relative binding free energy” value amounted to 1 kJ/mol.

On to TGTAACACGTGGTAAA, for which the “relative binding free energy” value was found to be 0.0418 kJ/mol.

Consider TGTGGCACGTGGAAGT, for which the “relative binding free energy” value turned out to be 0.0837 kJ/mol.

Take GTGTCCACGTGTGCTT: the “relative binding free energy” value amounted to 0.167 kJ/mol.

As to GATGGCACGTGCAGGT, the “relative binding free energy” value is -0.293 kJ/mol.

For the sequence CGTTTCACGTGGGAAT, the “relative binding free energy” value amounted to 1.46 kJ/mol.

As to TTTGACACGTGGTGCC, the “relative binding free energy” value is -0.335 kJ/mol.

In the case of TGGAACACGTGGGTTT, the “relative binding free energy” value was found to be 0.0418 kJ/mol.

AATGTCACGTGTGGAC: the “relative binding free energy” value stood at 0.795 kJ/mol.

As for TGACACACGTGGGGGG, the “relative binding free energy” value was -0.377 kJ/mol.

As to GTGTTCACGTGACTAG, the “relative binding free energy” value came to 1.42 kJ/mol.

AGTTGCACGTGGTGAC: the “relative binding free energy” value was -0.795 kJ/mol.

Take CTTGGCACGTGGTTTG: the “relative binding free energy” value is -0.879 kJ/mol.

For the sequence TTAATCACGTGTGAGC, the “relative binding free energy” value is 1.3 kJ/mol.

AGCTTCACGTGGGGTC: the “relative binding free energy” value turned out to be 0.879 kJ/mol.

Turning to TGGTACACGTGTTAGC, the “relative binding free energy” value was found to be 0.586 kJ/mol.

With ATTATCACGTGGTACT, the “relative binding free energy” value came out at 0.126 kJ/mol.

In the case of TGGTGCACGTGTGCGT, the “relative binding free energy” value is -0.46 kJ/mol.

With CGGATCACGTGGTAGT, the “relative binding free energy” value was 0.46 kJ/mol.

With AGCTTCACGTGGGGCT, the “relative binding free energy” value was found to be 0.293 kJ/mol.

As for CATTGCACGTGAGGGT, the “relative binding free energy” value was 0.669 kJ/mol.

As to TAAGGCACGTGGGTAT, the “relative binding free energy” value was -0.293 kJ/mol.

On to TCATTCACGTGGCGTT, for which the “relative binding free energy” value was 0.962 kJ/mol.

For TGGCTCACGTGTTAGG, the “relative binding free energy” value was determined as 1.26 kJ/mol.

Regarding ATAGGCACGTGTACTG, the “relative binding free energy” value was -0.544 kJ/mol.

Take GATGACACGTGGTGAG: the “relative binding free energy” value was found to be 0.251 kJ/mol.

For the sequence CTGTTCACGTGATTTA, the “relative binding free energy” value was found to be 1.38 kJ/mol.

GCTTGCACGTGTCGTG: the “relative binding free energy” value was -0.335 kJ/mol.

With AATAACACGTGTGTTA, the “relative binding free energy” value is -0.126 kJ/mol.

With TTTATCACGTGCTATA, the “relative binding free energy” value came to 0.46 kJ/mol.

Turning to AAAGGCACGTGTTTAT, the “relative binding free energy” value is -0.377 kJ/mol.

With ATGGACACGTGTGCGT, the “relative binding free energy” value is -1.13 kJ/mol.

In the case of TATAACACGTGTTCGT, the “relative binding free energy” value was -0.335 kJ/mol.

On to GAGCACACGTGGTGTA, for which the “relative binding free energy” value came out at 0.377 kJ/mol.

With TGTTCCACGTGGTTGG, the “relative binding free energy” value was 0.126 kJ/mol.

For the sequence TAAGTCACGTGAGTGG, the “relative binding free energy” value was 1.3 kJ/mol.

With ATGGACACGTGTTTAG, the “relative binding free energy” value was -0.0837 kJ/mol.

For the sequence TGTTGCACGTGTGAAG, the “relative binding free energy” value amounted to 0.377 kJ/mol.

Turning to TATGACACGTGTGGTA, the “relative binding free energy” value is 0.586 kJ/mol.

As to GGGGACACGTGTTTCA, the “relative binding free energy” value turned out to be 0.502 kJ/mol.

TTAATCACGTGTTGGC: the “relative binding free energy” value stood at 0.711 kJ/mol.

Take TGGAACACGTGGGCTT: the “relative binding free energy” value was -0.628 kJ/mol.

On to GGGTACACGTGTGTTA, for which the “relative binding free energy” value turned out to be 0.377 kJ/mol.

Values taken from the BET-seq Pho4 binding data (Le et al. 2018).
